Experimental data: paper PMC4336329 (PLoS ONE, 2015)
The whole screen tested about 310,000 compounds, of which about 14,000 (4.5%) showed an effect of 50% or more. The effect is printed as a negative number. Some of the results follow.
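Also: peak tail current of the secondary pulse compared with the same well before compound.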

The compounds below were run against human ether-à-go-go-related gene (hERG) potassium channel (human, UniProt Q12809) (assay: primary screen, population patch clamp on CHO cells stably expressing hERG).
Sequence of human ether-à-go-go-related gene (hERG) potassium channel (Q12809 whole entry, looked up): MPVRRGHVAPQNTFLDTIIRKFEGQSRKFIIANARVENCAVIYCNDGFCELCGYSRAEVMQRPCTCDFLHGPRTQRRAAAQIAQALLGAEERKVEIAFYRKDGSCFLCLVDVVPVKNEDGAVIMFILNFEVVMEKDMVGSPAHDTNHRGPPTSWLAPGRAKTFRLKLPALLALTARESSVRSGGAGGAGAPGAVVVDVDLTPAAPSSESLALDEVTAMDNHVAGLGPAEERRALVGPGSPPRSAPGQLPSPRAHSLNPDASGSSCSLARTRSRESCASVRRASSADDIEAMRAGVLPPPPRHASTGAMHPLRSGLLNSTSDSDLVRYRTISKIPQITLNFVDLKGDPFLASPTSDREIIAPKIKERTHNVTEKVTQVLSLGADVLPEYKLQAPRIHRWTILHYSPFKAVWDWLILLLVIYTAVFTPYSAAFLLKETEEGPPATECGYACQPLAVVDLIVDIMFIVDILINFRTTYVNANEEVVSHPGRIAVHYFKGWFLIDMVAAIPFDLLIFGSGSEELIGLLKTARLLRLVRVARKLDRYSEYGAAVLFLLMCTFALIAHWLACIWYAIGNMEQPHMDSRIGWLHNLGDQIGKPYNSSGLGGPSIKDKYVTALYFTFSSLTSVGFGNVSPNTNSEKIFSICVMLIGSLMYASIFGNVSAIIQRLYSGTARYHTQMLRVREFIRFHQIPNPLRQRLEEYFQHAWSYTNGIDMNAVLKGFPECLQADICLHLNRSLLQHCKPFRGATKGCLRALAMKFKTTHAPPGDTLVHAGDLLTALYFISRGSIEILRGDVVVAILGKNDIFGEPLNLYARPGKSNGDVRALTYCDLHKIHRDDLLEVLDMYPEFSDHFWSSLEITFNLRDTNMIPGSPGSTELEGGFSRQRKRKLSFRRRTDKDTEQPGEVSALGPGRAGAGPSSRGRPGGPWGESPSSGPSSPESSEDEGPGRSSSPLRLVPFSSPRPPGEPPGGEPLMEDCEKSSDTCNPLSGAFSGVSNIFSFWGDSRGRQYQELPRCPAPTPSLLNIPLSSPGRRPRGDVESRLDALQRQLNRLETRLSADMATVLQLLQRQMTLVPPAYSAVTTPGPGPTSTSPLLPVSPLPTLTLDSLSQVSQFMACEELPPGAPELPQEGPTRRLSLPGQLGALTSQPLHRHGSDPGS
For COc1cccc(C(=O)C2CCCN(C(=O)CCC3=NNC(=O)CC3)C2)c1 (stereo not drawn), the “hERG current change (%, negative = inhibition) at 10uM” value was -15.2%. In the case of C=CCSC1=N/C(=C\c2ccc(C(=O)O)cc2)C(=O)S1, the “hERG current change (%, negative = inhibition) at 10uM” value is reported as 14.9%. With O=S(=O)(c1cnc[nH]1)N1CCc2ccccc21 the “hERG current change (%, negative = inhibition) at 10uM” value was 16.5%. With CCOC(=O)c1c(NC(=O)COC(=O)/C=C/c2ccco2)sc2c1CC(C)(C)NC2(C)C the “hERG current change (%, negative = inhibition) at 10uM” value was -34.4%. In the case of CCN1C[C@]2(COC(=O)c3ccccc3N)CC[C@H](OC)C34[C@@H]5C[C@H]6[C@H](OC)[C@@H]5[C@](O)(C[C@@H]6OC)[C@@](O)([C@H]13)[C@@H](OC)[C@@H]42, the “hERG current change (%, negative = inhibition) at 10uM” value is reported as 10.3%. For COc1ccc(NC(=O)CN(Cc2ccccc2)S(C)(=O)=O)cc1, the “hERG current change (%, negative = inhibition) at 10uM” value was -1.09%. For CCCN1C(=O)/C(=C/c2ccc(C)o2)NC1=S, the “hERG current change (%, negative = inhibition) at 10uM” value was 9.75%. With CC(OC(=O)c1cc(S(=O)(=O)N2CCOCC2)ccc1F)C(=O)NC1CCCC1 (stereo not drawn) the “hERG current change (%, negative = inhibition) at 10uM” value was -0.142%. For Cc1ccc(NC(=O)Nc2cccn(Cc3c(F)cccc3Cl)c2=O)cc1, the “hERG current change (%, negative = inhibition) at 10uM” value was 20.1%. In the case of Cc1ccccc1NC(=S)N1CCN(c2ccccc2Cl)CC1, the “hERG current change (%, negative = inhibition) at 10uM” value is reported as 8.88%. With COc1ccc(CC(=O)N/N=C/c2ccc(C)s2)cc1 the “hERG current change (%, negative = inhibition) at 10uM” value was 11%. In the case of O=C(NCc1ccccc1CN1CCCC1)c1ccc(OCc2cscn2)cc1, the “hERG current change (%, negative = inhibition) at 10uM” value is reported as -30%. With CC(=O)N1CCN(c2ncnc3ccccc23)CC1 the “hERG current change (%, negative = inhibition) at 10uM” value was 5.33%. In the case of C=CCOc1c(Br)cc(/C=C2/NC(=S)N(C(C)=O)C2=O)cc1OC, the “hERG current change (%, negative = inhibition) at 10uM” value is reported as 16.5%. For Cn1c(O)c(N=NC(=O)CNC(=O)c2cccnc2)c2ccccc21, the “hERG current change (%, negative = inhibition) at 10uM” value was 15.1%. Cc1cc(OCC(=O)N2CCC(C(=O)O)(c3ccccc3)CC2)c2c(C)cc(=O)oc2c1 was tested, and the “hERG current change (%, negative = inhibition) at 10uM” value was 11.6%. For O=C(N/N=C/c1ccc(OC(=O)c2ccc(Br)cc2)cc1)c1ccncc1, the “hERG current change (%, negative = inhibition) at 10uM” value was -4.01%. With Cc1c(C(c2ccccc2Cl)c2c(O)c3ccccc3oc2=O)c(=O)n(-c2ccccc2)n1C (stereo not drawn) the “hERG current change (%, negative = inhibition) at 10uM” value was 17.9%. With O=c1cc(CN2CCN(Cc3ccccc3)CC2)c2cc3c(cc2o1)CCC3 the “hERG current change (%, negative = inhibition) at 10uM” value was -51%. With CN(Cc1ccco1)C(=O)c1c[nH]c2ccc(S(=O)(=O)Nc3ccc4c(c3)OCCO4)cc2c1=O the “hERG current change (%, negative = inhibition) at 10uM” value was -21.4%. With O=S(=O)(Cc1ncc(C(F)(F)F)cc1Cl)c1ccccc1 the “hERG current change (%, negative = inhibition) at 10uM” value was 9.45%. In the case of Nn1c(SCc2ccccc2)nnc1-c1ccco1, the “hERG current change (%, negative = inhibition) at 10uM” value is reported as 15.7%. In the case of COc1ccc(C(=O)[C@@H]2CC[C@](C)(C(=O)O)C2(C)C)cc1, the “hERG current change (%, negative = inhibition) at 10uM” value is reported as 10.1%. Cc1cc(C)c(C2C(C#N)=C(N)Oc3n[nH]c(C)c32)cc1CN1CCOCC1 (stereo not drawn) was tested, and the “hERG current change (%, negative = inhibition) at 10uM” value was -17.6%. For COc1ccc(S(=O)(=O)N2CCC(NC(=O)N3CCOCC3)CC2)cc1, the “hERG current change (%, negative = inhibition) at 10uM” value was 0.446%. Cn1c(Cc2ccccc2)nnc1SCc1ccc(C(=O)O)cc1 was tested, and the “hERG current change (%, negative = inhibition) at 10uM” value was 1.12%. O=C1CCCC2=C1C(c1ccncc1)c1c(nc(SCc3ccccc3)[nH]c1=O)N2 (stereo not drawn) was tested, and the “hERG current change (%, negative = inhibition) at 10uM” value was 17.7%. For CN(Cc1ccccc1)C(=O)CN1C(=O)c2ccccc2C1=O, the “hERG current change (%, negative = inhibition) at 10uM” value was 3.63%. For CC(=O)N(C(C)=O)N1C(=O)/C(=C/c2ccc(Cl)cc2)SC1=S, the “hERG current change (%, negative = inhibition) at 10uM” value was -2.01%. In the case of COc1ccc2[nH]c3c(N4CCN(Cc5ccc6c(c5)OCO6)CC4)ncnc3c2c1, the “hERG current change (%, negative = inhibition) at 10uM” value is reported as -18.8%. CCN(C(=S)Nc1ccccc1F)C1CCCCC1 was tested, and the “hERG current change (%, negative = inhibition) at 10uM” value was -0.0217%. With CC1(C)CC(=O)C2=C(C1)N(Cc1ccco1)C(=O)C2(NC(=O)c1ccc(Cl)cc1Cl)C(F)(F)F (stereo not drawn) the “hERG current change (%, negative = inhibition) at 10uM” value was -4.46%. With Cc1cc(C)c(NC(=O)COc2cccnc2[N+](=O)[O-])c(C)c1 the “hERG current change (%, negative = inhibition) at 10uM” value was 7.86%. With Cc1cccn2c(CNCC3(c4ccccc4)CCCC3)c(C(=O)N3CCOCC3)nc12 the “hERG current change (%, negative = inhibition) at 10uM” value was -10.1%. In the case of COCc1cc(C)nc(SC)c1C#N, the “hERG current change (%, negative = inhibition) at 10uM” value is reported as 16.1%. For Cc1ccc(Cn2cnc3c(nnn3Cc3ccc(Cl)cc3)c2=O)cc1, the “hERG current change (%, negative = inhibition) at 10uM” value was 3.9%. O=C(Nc1cccc(S(=O)(=O)N2CCOCC2)c1)c1ccc(Cl)c([N+](=O)[O-])c1 was tested, and the “hERG current change (%, negative = inhibition) at 10uM” value was 18%. CCC(CC)C(=O)NCc1ccc(Cl)cc1 was tested, and the “hERG current change (%, negative = inhibition) at 10uM” value was 4.47%. Cc1cc(C)cc(Oc2coc3cc(OC(=O)c4cccs4)ccc3c2=O)c1 was tested, and the “hERG current change (%, negative = inhibition) at 10uM” value was -0.857%. Cc1ccc(C(=O)N2CCN(c3ccc([N+](=O)[O-])c(NCc4cccnc4)c3)CC2)cc1 was tested, and the “hERG current change (%, negative = inhibition) at 10uM” value was -59.4%. In the case of CC1(C(=O)N2CC3(CC(c4cccc([N+](=O)[O-])c4)=NO3)C[C@H]2C(=O)NCC(N)=O)CC1 (stereo partly drawn), the “hERG current change (%, negative = inhibition) at 10uM” value is reported as 4.52%. For Cc1ccc(NS(=O)(=O)c2ccc(NC(=O)C3CC3)cc2)c(C)c1, the “hERG current change (%, negative = inhibition) at 10uM” value was 10.3%.
